# Test results reported in article PMC12136788.
# Some of the results follow.
# T1: UNK ZnF1-3 (human, UniProt Q9C0B0 31-174)
# T1 sequence: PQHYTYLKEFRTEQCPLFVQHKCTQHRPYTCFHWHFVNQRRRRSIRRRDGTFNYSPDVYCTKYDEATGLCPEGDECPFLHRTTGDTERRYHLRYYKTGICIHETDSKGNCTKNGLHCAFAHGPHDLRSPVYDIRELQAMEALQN
# B1: chr14:63888807:63888808:-_ENSG00000154001_ENST00000337537|hu_mus|motif|central (ssRNA)
# RNA: GGGAGUUCUACAGUCCGACGAUCUUCAUUGCUGUCACUAGGAGGGAGAGUUCUGAAUAUAUUGCAAGAUACCAUUCGGACGGCUUCAGGGUAAGUCUGCUCUGUCAGACAGCCUCUGCUUAUUGUAAUGUAGUCCACCAGUUCCAACAGAGGAUUGAGCAUCA
# B2: chr14:89307221:89307222:+_ENSG00000165533_ENST00000346301|hu_mus|FALSE|FALSE (ssRNA)
# RNA: GGGAGUUCUACAGUCCGACGAUCUCCUGUUUGGUUAGUGCCAGGGAGCUUCAAAGAUGUGCCAGGGCGUGGGACCUGAGCAAUAGCAUUUUCAUCCAGGAUCAUUUCAGCAAUUCCUUCCUGGUCCACAUCAAUUUCAUCUAUCAACAGAGGAUUGAGCAUCA
# B3: 41771383_41772518_1973_3pUTR_ENSG00000137815_ENST00000389629|human|control|control (ssRNA)
# RNA: GGGAGUUCUACAGUCCGACGAUCCUGGGAACUUGUAAGUCAAUCUUCACAUCAAAAUCGUGUACUUUGAACAGAUCUUCUGAGAGGUCACUGGCUGACUUAGAAUUCAAAUCUUUAUCUUUGCCUUGACCCUUGCUCAUUUCCCAACAGAGGAUUGAGCAUCA
# B4: chr7:149068622:149068623:-_ENSMUSG00000025139_ENSMUST00000001950|mus_hu|mus_mus_mus_hu_False|38_78 (ssRNA)
# RNA: GGGAGUUCUACAGUCCGACGAUCGUGAGGCCUCUGAGUGUGGCUUGUGGUCUGUCCUGUCUGCAGUUUGUUAAUAUCACGGAACAUACCAUCUAGAGAGGUUCUGCCCCGCCUGACACCUUCAUUCCCAAUGGAGAAGAAAUCCAACAGAGGAUUGAGCAUCA
# B5: chr10:1038518:1038519:+_ENSG00000107937_ENST00000545048|hu_mus|FALSE|FALSE (ssRNA)
# RNA: GGGAGUUCUACAGUCCGACGAUCCAGUCUGUCAUGGUAAUUCUGUUGAGUAAAUUUGACUUUUCUCAUAUAAAAAUGUCGAAUCCGAUGAAUUUGAUAAUGUUUAUGAAUAACCGUUGGAGUCUUUCGUUGAGUCUUGGAUAACAACAGAGGAUUGAGCAUCA
# B6: chrX:140365796:140365797:-_ENSMUSG00000031285_ENSMUST00000033642|mus_mus|mus_mus_mus_hu_False|78_78 (ssRNA)
# RNA: GGGAGUUCUACAGUCCGACGAUCCUUCUCAUUACUCAGUGCCUGCAAGGUUCUGGUUCUGUAGAAGCUACAGUGGGCGCUGUGAGUGGGGCUAGGCAACCCAUUCAUCCGGGAGCCUCGCAUGUUCCUGGAUGUCUUAUCUCUCAACAGAGGAUUGAGCAUCA
# B7: 60895986_60898943_215_3pUTR_ENSMUSG00000021987_ENSMUST00000022563|mouse|control|control (ssRNA)
# RNA: GGGAGUUCUACAGUCCGACGAUCAGAGGCAAUAUGGUGGUGUAGUAUCCAGGUUUCUUUUUGCUGAGCGUCAAUAAAUAAUAGGUGUGUGGCCGUAAGAUACAGUGUUCCUGUCAGUGACUUGUUGUUGGUACUAAACCGGUCCAACAGAGGAUUGAGCAUCA
# B8: chr7:108212191:108212192:+_ENSG00000128590_ENST00000249356|hu_hu|motif|central (ssRNA)
# RNA: GGGAGUUCUACAGUCCGACGAUCGUUAUCAUUAAAAUGCAGAUUGCAAAGAUGAAAAUUGACUGGGGAGUAGCCAUUUCGGAUAUCCUGCACCCUCCGACUACUGCUGCUCCUCCACAGAGCUGAGGCGCUGGCGACCCUGACCAACAGAGGAUUGAGCAUCA
# B9: chr10:80642667:80642668:+_ENSMUSG00000034994_ENSMUST00000047864|mus_hu|FALSE|FALSE (ssRNA)
# RNA: GGGAGUUCUACAGUCCGACGAUCGACUCGUCCAAAGGCGUAGAACCGACCUUUGUCGGAGGUUGGCACCAUUUUGGAAAUAUACAUCAUAAGAGGGCCUUUGGGGUCACAGCUUUUAAUGCCCAUGGCAGCCUCGUCGUCCGGCAACAGAGGAUUGAGCAUCA
# B10: chr7:65705844:65705845:+_ENSG00000169902_ENST00000304842|hu_mus|hu_hu_hu_mus_False|8_8 (ssRNA)
# RNA: GGGAGUUCUACAGUCCGACGAUCAAACGGAUCUUUGUUACAUAAAUAAGGUGCCGGCUCCCCAUGUUUAACAAUGACCUCCAGAAGGAAGGCUUGCAUGGCAGAAUCUAGCACUUCAUCUGUGACACCAGCCUCAUCCAAGCGCAACAGAGGAUUGAGCAUCA
# B11: chr6:38652254:38652255:-_ENSG00000124767_ENST00000373365|hu_hu|hu_hu_hu_mus_False|48_88 (ssRNA)
# RNA: GGGAGUUCUACAGUCCGACGAUCCGAGAACUUCAUAGCAGGGAAGUCACAUUUUUGCAGGAGGGUCAGUCCAAGAACCCUCGUAUAAAAAUCCAGUGACUUCUUAGGAUCCUUAAUUCUUAGCAUCGUUUGCUGCAGUAGAAACAACAGAGGAUUGAGCAUCA
# B12: chr4:76733432:76733433:+_ENSG00000138768_ENST00000264904|hu_hu|motif|central (ssRNA)
# RNA: GGGAGUUCUACAGUCCGACGAUCGCCAAGAGCACCAAGAGAUCAUCUUGUUCUUUUUUAGAAUCUGUAAUUUCCAACUCGGGUUUGUCUUUCUCAGUUUGUAAAAUGGCAAUGGUACUAUUAGAUGAAUCCAGCUGCUCUUUACAACAGAGGAUUGAGCAUCA
# B13: chr11:35622686:35622687:-_ENSMUSG00000018848_ENSMUST00000018992|mus_hu|motif|central (ssRNA)
# RNA: GGGAGUUCUACAGUCCGACGAUCGAAAGCAGUUGCCAGCUCAUAUAUAUAAUCACAGAGAGUGUGGAGAAAUAAGUCAUCGGAAAUCUUUUGCAGAAUCUCAGGGAACCGUAAAAUGCACCGGCCUAGUUUCCAUUCCUUCUCCAACAGAGGAUUGAGCAUCA
# B14: chr17:64801638:64801639:+_ENSG00000154229_ENST00000413366|hu_mus|hu_hu_hu_mus_False|28_108 (ssRNA)
# RNA: GGGAGUUCUACAGUCCGACGAUCUAUAAAUACAUAUACAUAUGUACACAUAUAUAGUAAAACCCUAGUUAAACGUGUAAAGUAGCCAUUCAUUUUUAAAAUUACAUCUACAUUUAAAAAUUAAUAUAUCUGAUAGAGUGCCAGCAACAGAGGAUUGAGCAUCA
# Molecular target: T1, UNK ZnF1-3
# Experiment: nsRBNS (natural sequence RNA bind-n-seq); RBNS binding buffer (assumed for nsRBNS): 25 mM Tris pH 7.5, 150 mM KCl, 3 mM MgCl2, 0.01% Triton X-100, 500 ug/ml BSA, 20 U/ml SUPERase-In, 4 C; UNK is unkempt and MSI1 is Musashi-1; names of the RNAs are library labels; protein concentration not given here; high values mean tight binding
row,Binder,binding signal [enrichment R]
1,B1,1.06
2,B2,0.886
3,B3,0.655
4,B4,0.806
5,B5,0.535
6,B6,0.603
7,B7,1.12
8,B8,0.989
9,B9,1.92
10,B10,0.623
11,B11,0.691
12,B12,1.17
13,B13,1.44
14,B14,1.96
